Values marked as one replicate rest on one cluster of the flow cell; about a third of the high ones do not repeat.
Tested on: ATP
Assay: switch fluorescence ratio, 500 uM ATP over buffer (Cy3 cluster intensity, sum of 5 cycles each) (fold (ratio)); higher = stronger signal-on switching upon ATP binding; sequences stand for … in TCGTCGGCAGCGTCAGATGTGTATAAGAGACAGTTTTTTTTTTTTTTTTTTTTTTTTT…TC
Details: aptamer strand: ATP DNA aptamer (quencher-CACCTGGGGGAGTATTGCGGAGGAAGG + anchor), 100 nM annealed; ATP concentration: 500 uM; one replicate
Outline: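 Clusters carrying Cy3-labelled switching strands on a modified Illumina MiSeq flow-cell were annealed to 100 nM quencher-labelled ATP aptamer and imaged in selection buffer. They were imaged again after 15 min with 500 uM ATP at 22 °C, over five buffer/ATP cycles with NaOH stripping and re-annealing in between. For each cluster, the fluorescence ratio is the summed Cy3 intensity of the target cycles divided by that of the buffer cycles, averaged per switch-domain sequence. Clusters outside 100-1000 RFU were left out.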
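Also: ATP exposure 15 min at 22 °C before imaging.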

Row | Sequence | switch fluorescence ratio
1 | TCTTTTTTAA | 1.06
2 | TGAAAAACTT | 1.02
3 | TGAAAAGGT | 0.98
4 | TGAAAATCG | 1.03
5 | TGAAAATGAT | 0.984
6 | TGAAACGGAC | 1.4
7 | TGAAAGAGCA | 0.969
8 | TGAAAGATGG | 1.03
9 | TGAAAGGGTT | 0.962
10 | TGAAAGTCGG | 1.01
11 | TGAACCATGG | 0.957
12 | TGAACGCCTC | 1.31
13 | TGAACTACTT | 1.02
14 | TGAACTCATG | 0.98
15 | TGAACTCTGG | 0.969
16 | TGAAGACGAA | 1.02
17 | TGAAGATCTA | 1.02
18 | TGAAGGATTA | 1.01
19 | TGAAGGCGCT | 1.08
20 | TGAAGGGTTA | 0.958
21 | TGAAGTGGA | 1.01
22 | TGAATAAAAG | 0.998
23 | TGAATAAACT | 1.02
24 | TGAATAAGTA | 0.982
25 | TGAATACGGA | 1.55
26 | TGAATCACGG | 1.03

Row | Sequence | switch fluorescence ratio
27 | TGAATGAATC | 0.955
28 | TGAATGCGGA | 0.991
29 | TGAATGGCTA | 0.975
30 | TGAATGTGTT | 0.977
31 | TGAATTAGG | 0.952
32 | TGAATTTTGG | 1.03
33 | TGACAATAAG | 0.996
34 | TGACAATATC | 1.59
35 | TGACATGTGT | 0.982
36 | TGACCACG | 1.01
37 | TGACCGACTG | 0.945
38 | TGACCGTACT | 1.2
39 | TGACCGTTCG | 0.982
40 | TGACCTGGAC | 1.17
41 | TGACGGCTCG | 1.06
42 | TGACGTAGTA | 1.02
43 | TGACGTCCAT | 1.11
44 | TGACGTGTAG | 1.04
45 | TGACTAAAAG | 0.927
46 | TGACTATGCA | 1.03
47 | TGACTCCCCT | 1.98
48 | TGACTCCGGG | 0.993
49 | TGACTCTGGG | 1.01
50 | TGACTGACGG | 1.09
51 | TGACTGATGC | 1.09
52 | TGACTGCCC | 1.21

Row | Sequence | switch fluorescence ratio
53 | TGACTGCTTG | 1
54 | TGACTGGAAC | 1.04
55 | TGACTGGAGC | 1.02
56 | TGACTGTGGC | 1.01
57 | TGACTTACAG | 1.01
58 | TGACTTGGAG | 1.02
59 | TGACTTTGGT | 0.972
60 | TGACTTTTG | 0.92
61 | TGAGAGGGG | 0.962
62 | TGAGATCCGG | 1.03
63 | TGAGATCGGG | 1
64 | TGAGATGGGT | 0.963
65 | TGAGATGTAT | 0.979
66 | TGAGCACCAC | 1.03
67 | TGAGCCAGAG | 1.02
68 | TGAGCTCCAG | 1.01
69 | TGAGGAAAAC | 1.01
70 | TGAGGAAAAT | 1.01
71 | TGAGGAACTC | 1.01
72 | TGAGGATGCC | 1.06
73 | TGAGGCGTAT | 0.983
74 | TGAGGCTACT | 1.09
75 | TGAGGGACTT | 1
76 | TGAGGGATAT | 0.978
77 | TGAGGGGCA | 1.05
78 | TGAGGTCCGG | 0.956

Row | Sequence | switch fluorescence ratio
79 | TGAGGTGTG | 0.971
80 | TGAGGTTATG | 0.974
81 | TGAGTATAAG | 0.974
82 | TGAGTCAAGG | 0.973
83 | TGAGTCCCCT | 1.03
84 | TGAGTGGTAG | 0.995
85 | TGAGTTTA | 1
86 | TGAGTTTGTC | 0.933
87 | TGATAAGTTG | 1.01
88 | TGATACGCCT | 1.03
89 | TGATAGAGCT | 1.03
90 | TGATATAATG | 1.03
91 | TGATATAGGT | 1.02
92 | TGATATATAT | 1
93 | TGATATTGCG | 0.951
94 | TGATCAGAGG | 1.02
95 | TGATCATGAT | 1.03
96 | TGATCCAAGT | 0.997
97 | TGATCGAGTC | 1.06
98 | TGATCGGAGG | 1.05
99 | TGATCGGCCC | 0.995
100 | TGATCTATAT | 0.96
101 | TGATCTTGGT | 1.03

— the supplement of paper PMC10126150
